Experimental data as given in patent CN115057938A (dated 2022).

biological target: T1, Delta变异株SARS-COV-2 RBD蛋白(Ag101) (SARS-COV-2 Delta变异株); assay: competition ELISA: Delta RBD coated, blocks ACE2 binding
T1 construct: domain: RBD; also called Delta variant SARS-COV-2 RBD protein

Binder	IC50 [nM]
R1406 (Fc fusion, not shown: small tags and cut ends, also called 人源化多价结合蛋白 R1406; VHH-Linker-VHH-Linker-VHH-Fc区) chain (part 1 of 3): QVQLVESGGGPVQAGGSLRLSCTCSRCTFNWDGMGWFRQAPGKEREFVATISWSGQEPAYADSVKGRFTISRDKPKNTVYLQMTSLKSEDTAVYYCAAAQYTGASYSILRDQVGYDYWGQGTRVTVSA chain (part 2 of 3): QVQLVESGGGPVQAGGSLRLSCTCSRCTFNWDGMGWFRQAPGKEREFVATISWSGQEPAYADSVKGRFTISRDKPKNTVYLQMTSLKSEDTAVYYCAAAQYTGASYSILRDQVGYDYWGQGTRVTVSA chain (part 3 of 3): QVQLVESGGGPVQAGGSLRLSCTCSRCTFNWDGMGWFRQAPGKEREFVATISWSGQEPAYADSVKGRFTISRDKPKNTVYLQMTSLKSEDTAVYYCAAAQYTGASYSILRDQVGYDYWGQGTRVTVSA[human IgG1 Fc with changes not printed]	0.0148
R1407 (Fc fusion, not shown: small tags and cut ends, also called 人源化多价结合蛋白 R1407; Fc区-VHH-Linker-VHH-Linker-VHH) chain (part 1 of 3): [human IgG1 Fc with changes not printed]QVQLVESGGGPVQAGGSLRLSCTCSRCTFNWDGMGWFRQAPGKEREFVATISWSGQEPAYADSVKGRFTISRDKPKNTVYLQMTSLKSEDTAVYYCAAAQYTGASYSILRDQVGYDYWGQGTRVTVSA chain (part 2 of 3): QVQLVESGGGPVQAGGSLRLSCTCSRCTFNWDGMGWFRQAPGKEREFVATISWSGQEPAYADSVKGRFTISRDKPKNTVYLQMTSLKSEDTAVYYCAAAQYTGASYSILRDQVGYDYWGQGTRVTVSA chain (part 3 of 3): QVQLVESGGGPVQAGGSLRLSCTCSRCTFNWDGMGWFRQAPGKEREFVATISWSGQEPAYADSVKGRFTISRDKPKNTVYLQMTSLKSEDTAVYYCAAAQYTGASYSILRDQVGYDYWGQGTRVTVSA	0.0158
R1382 (Fc fusion, also called RX011 VHH-Fc区; 对照) QVQLVESGGGPVQAGGSLRLSCTCSRCTFNWDGMGWFRQAPGKEREFVATISWSGQEPAYADSVKGRFTISRDKPKNTVYLQMTSLKSEDTAVYYCAAAQYTGASYSILRDQVGYDYWGQGTRVTVSA[human IgG1 Fc with changes not printed]	0.0137
